Data: PubChem BioAssay AID488969 (Vanderbilt High Throughput Screening Facility, 2010)
In all, about 110,000 compounds were measured (“z-score”: median about -0.1, highest 2% from about 2 on). The list shows a part of the results. The source made the active and inactive calls.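 How the source made its calls: active means z-score in the third read window above 3 or below -3; inactive means the rest.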

Target: Metabotropic glutamate receptor 8 (Rattus norvegicus) (UniProt P70579)
Assay: rat mGluR8 modulators via GIRK flux, primary screen, cell-based, thallium flux, HTS (AID 488969)
Conditions: HEK293 rat mGluR8, GIRK (G protein-gated inwardly rectifying potassium channel) thallium flux, FluoZin2; at 10 µM; stronger effect = higher value; submaximal glutamate (EC20) added with thallium

Chain of UniProt P70579 (P70579 whole entry, looked up): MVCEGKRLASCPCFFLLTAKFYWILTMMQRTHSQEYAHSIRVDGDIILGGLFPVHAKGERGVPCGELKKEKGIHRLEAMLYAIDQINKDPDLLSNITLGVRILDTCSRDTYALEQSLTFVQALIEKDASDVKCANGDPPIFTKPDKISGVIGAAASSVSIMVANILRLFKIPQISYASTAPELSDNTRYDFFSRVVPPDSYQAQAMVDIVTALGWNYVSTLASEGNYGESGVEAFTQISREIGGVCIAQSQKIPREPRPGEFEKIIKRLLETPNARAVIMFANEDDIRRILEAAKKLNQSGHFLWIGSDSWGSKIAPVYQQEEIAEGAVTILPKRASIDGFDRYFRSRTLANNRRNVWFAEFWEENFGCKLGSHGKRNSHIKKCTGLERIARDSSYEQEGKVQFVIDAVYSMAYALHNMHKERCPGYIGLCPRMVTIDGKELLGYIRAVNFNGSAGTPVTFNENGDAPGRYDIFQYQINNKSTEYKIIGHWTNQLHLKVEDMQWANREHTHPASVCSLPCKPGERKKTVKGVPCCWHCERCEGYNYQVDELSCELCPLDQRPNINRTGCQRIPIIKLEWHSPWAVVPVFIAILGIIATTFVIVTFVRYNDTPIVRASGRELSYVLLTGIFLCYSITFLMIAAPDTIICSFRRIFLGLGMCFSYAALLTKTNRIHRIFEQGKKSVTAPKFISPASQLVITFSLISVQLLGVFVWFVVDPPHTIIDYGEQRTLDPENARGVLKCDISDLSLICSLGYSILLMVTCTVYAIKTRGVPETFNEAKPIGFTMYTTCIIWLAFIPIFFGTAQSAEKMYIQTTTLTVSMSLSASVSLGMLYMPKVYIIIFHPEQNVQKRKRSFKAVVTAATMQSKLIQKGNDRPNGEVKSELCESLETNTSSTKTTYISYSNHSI

Going from `COc1ccc(S(=O)(=O)Nc2ccccc2C(=O)NC(C)(C)C)cc1OC` to `CC(C)(C)NS(=O)(=O)c1cccc(S(=O)(=O)c2cccc(S(=O)(=O)NC(C)(C)C)c2)c1`, the z-score falls from -0.0109 to -0.252.

Compared with `O=C(NN=C1CCCC1)c1cc(-c2ccccc2)n[nH]1`, `Cc1onc(-c2ccccc2)c1C(N)=O` is higher in z-score: -0.217 for the first, -0.0284 for the second.

First: COc1cc2nc(N(C)C)nc(N)c2cc1OC
Second: COCCNC(=O)c1cc(-c2ccc(OC)c(OC)c2)on1
The z-score of the first is higher: 0.0114 for the first, -0.0363 for the second.

Going from `COc1ccc(C2CC(C(F)(F)F)n3nc(C(=O)N(C)Cc4cn(C)nc4C)c(Cl)c3N2)cc1` (stereo not given) to `COc1ccc(N2CC(C(=O)Nc3cc(C)on3)CC2=O)cc1` (stereo not given), the z-score falls from -0.155 to -0.318.

First: Cc1ccc(C)c(CSc2nnc(-c3cccs3)n2Cc2ccco2)c1
Second: COc1ccc(-c2nnc(SC(C)C(=O)Nc3nccs3)n2Cc2ccccc2)cc1OC (stereo not given)
The z-score of the first is higher: -0.588 for the first, -0.987 for the second.

First: COc1ccc(/C=C(/NC(C)=O)C(=O)O)cc1
Second: COc1ccc(NC(=O)C=C(C)C)cc1Cl
The z-score of the first is lower: -0.494 for the first, -0.139 for the second.

First: Cc1cc(C)n(C(=O)c2nn(C)c(C)c2[N+](=O)[O-])n1
Second: CC1=NN(C(=O)c2cccc(Cn3nc(C)c([N+](=O)[O-])c3C)c2)C(O)(C(F)(F)F)C1 (stereo not given)
The z-score of the first is higher: -0.059 for the first, -0.74 for the second.

First: COc1cc(OC)cc(C(=O)NCCN2CCOCC2)c1
Second: O=C(NCCN1CCOCC1)c1cn(CCc2ccccc2)nn1
The z-score of the first is higher: -0.064 for the first, -0.563 for the second.

First: CCOP(=O)(OCC)C(Nc1cccc(C(F)(F)F)c1)c1ccc(C)cc1 (stereo not given)
Second: CCOC(=O)C1CN(S(=O)(=O)c2cccc(C(F)(F)F)c2)c2cc(CC(=O)OC)ccc2O1 (stereo not given)
The z-score of the first is higher: -0.302 for the first, -0.43 for the second.

Going from `Cc1nn(Cc2ccccc2Cl)c2sc(C(=O)NCc3ccc4c(c3)OCO4)cc12` to `O=C(/C=C/c1cc2c(cc1Br)OCO2)NCc1ccc(F)cc1`, the z-score rises from -0.731 to -0.0959.

Going from `N#CCC(CNc1ncc(C(F)(F)F)cc1Cl)OC(=O)c1cccc(C(F)(F)F)c1` (stereo not given) to `O=C(NNC(=O)c1cc(OCC(F)(F)F)ccc1OCC(F)(F)F)c1ccc(Cl)c(Cl)c1`, the z-score rises from -0.197 to 0.0582.

Going from `O=C(CSc1nnc(-c2ccncc2)n1C1CCCCC1)Nc1cccc(O)c1` to `Cc1cccc(C(=O)NCc2nnc(SCC(=O)N3CCN(c4ccccc4)CC3)n2C)c1`, the z-score rises from -0.0405 to 0.0474.

First: c1ccc(CNc2cnccn2)cc1
Second: O=C(NCc1ccco1)Oc1ccccc1
The z-score of the first is higher: 0.162 for the first, -0.208 for the second.

Going from `Cc1ccc(Nc2nc(N)nc(CSc3nccn3C)n2)c(C)c1` to `Cc1ccc(-c2cnc(N)n2C)cc1C`, the z-score rises from 0.886 to 0.959.

First: CN1C2C=C3C(C#N)=C(N)C(C#N)(C#N)[C@@H](c4cccc(F)c4)[C@@H]3C1CC2 (stereo not given in full)
Second: Cc1nn(-c2ccc(F)cc2)c2c1cc(C#N)c1nc3ccccc3n12
The z-score of the first is higher: 1.32 for the first, -0.176 for the second.

First: CCOC(=O)NC(=O)CSc1nc(C)cc(C(F)(F)F)c1C#N
Second: O=C(O)CCSc1nnc(SCC(=O)NCC(F)(F)F)s1
The z-score of the first is lower: -0.337 for the first, 0.131 for the second.

First: O=C(c1ccc(Cl)c(S(=O)(=O)N2CCCC2)c1)N1CCN(c2ccccn2)CC1
Second: COc1ccc(S(=O)(=O)Cc2ccc(C(=O)N3CCCC3)o2)cc1
The z-score of the first is higher: 0.515 for the first, 0.186 for the second.

Going from `COC(=O)Nc1nn(Cc2ccccc2F)cc1Br` to `O=C(Nc1nc2ccccc2[nH]1)c1ccccc1F`, the z-score rises from -0.155 to 0.299.

Compared with `O=C(NCCOC(=O)c1cccs1)c1cccnc1`, `CCCCNC(=O)COC(=O)CCC(=O)c1cccs1` is higher in z-score: -0.116 for the first, 0.202 for the second.

Going from `CCc1nnc(NC(=O)CSc2nnc3ncccn23)s1` to `CCCn1c(SCC(=O)Nc2nnc(C(C)C)s2)nc2c1c(=O)n(C)c(=O)n2C`, the z-score falls from -0.0219 to -0.147.

Going from `CCOC(=O)Nc1cccc(C(=O)O)c1` to `O=C(COc1cccc(NC(=O)c2cccc([N+](=O)[O-])c2)c1)c1ccc(Br)cc1`, the z-score rises from -0.247 to -0.145.

Compared with `CC1(c2ccc3noc(-c4ccc(F)cc4)c3c2)OCCO1`, `CCOC(=O)Cc1cc(=O)n2[nH]c(-c3ccc(C)cc3)cc2n1` is lower in z-score: 0.16 for the first, -0.304 for the second.

Going from `CCCCN1C(=O)C2NN=C(C(=O)OCC)C2C1=O` (stereo not given) to `CCCCN1C(=O)C2C(c3ccc(OC)cc3O)NC(CC(C)C)(C(=O)O)C2C1=O` (stereo not given), the z-score falls from 0.0375 to -0.261.

Compared with `CC(C)c1ccc(Nc2ncccc2C#N)cc1`, `CCCCC(CC)C(=O)Nc1ccc(Nc2ccccc2)cc1` (stereo not given) is higher in z-score: -0.199 for the first, -0.119 for the second.

First: Oc1ccc(-c2cn3c(n2)SCC3)cc1
Second: CCCCCC(=O)Nc1ccc(-c2csc(C)n2)cc1
The z-score of the first is lower: -0.465 for the first, -0.378 for the second.

Going from `CCCOc1cc(CC(=O)NCc2ccco2)ccc1OC` to `COCCCNC(=O)Cc1ccccc1OC`, the z-score falls from 0.674 to 0.194.

Compared with `CN(C)c1cc(=O)n2c(n1)SCCC2`, `Cc1nc2ccc(N)cc2s1` is lower in z-score: -0.0576 for the first, -0.192 for the second.

Compared with `O=C1C2C3c4ccccc4C(c4ccccc43)C2C(=O)N1c1cccnc1` (stereo not given), `O=C(Nc1ccccc1F)c1ccccc1-c1ccccc1` is lower in z-score: -0.0955 for the first, -0.421 for the second.

Compared with `COc1ccc2c(CC(=O)Nc3c(C)n(C)n(-c4ccccc4)c3=O)coc2c1`, `Cc1cc(Nc2c(C)n(C)n(-c3ccccc3)c2=O)n2c(nc3ccccc32)c1C#N` is higher in z-score: -0.241 for the first, -0.0598 for the second.

Going from `CCC(=O)Nc1ccc(S(=O)(=O)c2ccc(NC(=O)CC)cc2)cc1` to `NC(=O)c1ccc(NC(=O)c2ccccc2S(=O)(=O)c2ccccc2[N+](=O)[O-])cc1`, the z-score falls from 0.658 to 0.483.

First: CC(=O)Oc1ccc2ccccc2c1C(NC(=O)Cc1ccccc1)c1ccccc1 (stereo not given)
Second: O=C(O/N=C(\c1ccccc1)c1ccccn1)c1cccc2ccccc12
The z-score of the first is higher: 0.0827 for the first, -0.00197 for the second.

Compared with `COc1ccccc1N1CCN(C(CNS(=O)(=O)c2cccs2)c2cccnc2)CC1` (stereo not given), `Cn1c(=O)c2c(nc(CN3CCN(c4ccccc4F)CC3)n2CCCc2ccccc2)n(C)c1=O` is lower in z-score: -0.123 for the first, -0.651 for the second.

Compared with `C=CCn1c(C)cc(C(=O)COC(=O)C2CC(=O)N(Cc3ccccc3)C2)c1C` (stereo not given), `C=CCn1c(CCNC(=O)c2ccccc2F)nnc1SCc1nc2ccccc2c(=O)[nH]1` is higher in z-score: -0.908 for the first, -0.0364 for the second.

Going from `Cc1cc(C)n(-c2nc(-c3ccccc3)cs2)n1` to `Cc1csc(NC(=O)c2ccc(S(=O)(=O)N(C)c3ccccc3)cc2)n1`, the z-score rises from -0.00661 to 0.497.

Compared with `CN(C(=S)Nc1ccc(Oc2ccccc2)cc1)C1CCCCC1`, `CC(C)Oc1ccc(C(=O)NC2CCCCC2)cc1` is higher in z-score: 0.0776 for the first, 0.0934 for the second.

Going from `Cc1cc(C)n2nc(C(=O)OCCOc3ccc(F)cc3)nc2n1` to `COc1ccc(-c2[nH]nc3c2C(c2ccoc2)C(C#N)=C(N)O3)cc1` (stereo not given), the z-score falls from -0.232 to -0.602.

Compared with `CC1CCCC(NC(=O)CN(C)S(=O)(=O)c2cccc3cccnc23)C1C` (stereo not given), `CN(c1cccc(NC(=O)CN(c2cccc(Cl)c2)S(=O)(=O)c2ccccc2)c1)S(C)(=O)=O` is lower in z-score: -0.113 for the first, -0.202 for the second.

First: COc1ccc(S(=O)(=O)Nc2ccc(F)cc2)cc1N(C)S(=O)(=O)c1ccc(Cl)cc1
Second: CCC(=O)N1CCc2cc(S(=O)(=O)NC(C(=O)NCc3ccc(F)cc3)C(C)C)ccc21 (stereo not given)
The z-score of the first is higher: 0.223 for the first, -0.156 for the second.

First: O=C(COC(=O)c1ccccc1SCC(=O)NC1CCCCC1)NC1CCCCC1
Second: O=C(COC(=O)[C@H](Cc1ccccc1)NC(=O)c1cccs1)NC1CCCCC1
The z-score of the first is lower: -0.0361 for the first, -0.0264 for the second.

Going from `CCOCCc1nnc(NC(=O)CN2C(=O)c3ccccc3C2=O)s1` to `COc1ccc(Cc2nnc(NC(=O)C3CCCO3)s2)cc1` (stereo not given), the z-score falls from 1.6 to -0.302.

Compared with `CCCCN(CC)C(=O)c1ccc(-c2ccccc2)cc1`, `CCNC(=O)CSc1nnc(-c2cc(-c3ccc(Cl)cc3)nc3ccccc23)o1` is lower in z-score: 0.132 for the first, -0.336 for the second.

Going from `CCOC(=O)CN1CC23C=CC(O2)C(C(=O)NC2CCCCC2)C3C1=O` (stereo not given) to `Cc1c(C(=O)OC2CCCCC2)sc2nc[nH]c(=O)c12`, the z-score falls from 0.245 to 0.108.

First: O=C(NCC1CCCO1)c1sc2ccccc2c1Cl (stereo not given)
Second: O=C(NCc1cccs1)C1CCN(c2nc3ccccc3o2)CC1
The z-score of the first is lower: -0.467 for the first, 0.764 for the second.

Going from `Cn1nnnc1SCC(=O)N1c2ccccc2CCc2ccccc21` to `Nc1ccccc1-c1nc2ccccc2[nH]1`, the z-score falls from -0.0219 to -0.0477.

First: Cc1cccc(N2C(=O)CC(N3CCN(Cc4ccc5c(c4)OCO5)CC3)C2=O)c1 (stereo not given)
Second: COc1ccc(N2C(=O)CC(N3CCN(C4CCc5ccccc5C4)CC3)C2=O)cc1 (stereo not given)
The z-score of the first is lower: -0.681 for the first, 0.44 for the second.

Compared with `Cc1cc(-n2c(C)cc(C(=S)N3CCOCC3)c2C)ccc1Br`, `CCc1[nH]nc2c1C(c1cccc(OC(=O)N3CCOCC3)c1)C(C#N)=C(N)O2` (stereo not given) is higher in z-score: -1.47 for the first, -1.34 for the second.

Compared with `N#Cc1cc2cc3c(cc2nc1SCC(=O)OC1CCCCC1)OCO3`, `CC(C)NC(=O)CCCn1c(=S)[nH]c2cc3c(cc2c1=O)OCO3` is higher in z-score: 0.0517 for the first, 0.566 for the second.

Compared with `O=c1oc2c(CN3CCOCC3)c(O)ccc2c2ccccc12`, `CCc1ccccc1NC(=S)NC1CC2CCC(C1)N2Cc1ccco1` (stereo not given) is higher in z-score: -0.177 for the first, -0.15 for the second.

First: CC(C)(/C=N/O)/[N+]([O-])=C/C=[N+](\[O-])C(C)(C)/C=N/O
Second: Brc1ccc(N=C/C=C/C=C/Nc2ccc(Br)cc2)cc1
The z-score of the first is lower: -0.189 for the first, 0.151 for the second.

First: COc1ccc(NC(=O)CCCCCN2C(=O)CCC2=O)cc1Cl
Second: CC(C)C1O/C(=N/C(=O)Nc2ccc(Cl)c(Cl)c2)NC1=O (stereo not given)
The z-score of the first is lower: -0.291 for the first, 0.0865 for the second.

Going from `CCOC(=O)c1c(NC(=O)c2ccc(N3C(=O)[C@@H]4[C@H](C3=O)[C@H]3C=C[C@@H]4C3)cc2)sc2c1CCCC2` to `Cc1nc(NC(=O)c2cccc(-c3cc4ccccc4oc3=O)c2)ccc1Br`, the z-score falls from -0.227 to -0.316.

Compared with `Cc1nc2ccccc2c(=O)n1/N=C/c1ccncc1`, `COc1ccc(-c2cn(-c3ccc(SC(F)F)cc3)c3[n+]2CCC3)cc1OC` is higher in z-score: -0.171 for the first, 0.034 for the second.

First: COc1ccc(C2CC(=O)Nc3sc(=N)c4c(N)c(C#N)c(N)nc4c32)cc1OC (stereo not given)
Second: CCCOc1ccc(C(C)=O)cc1CSCCC#N
The z-score of the first is higher: -0.465 for the first, -0.853 for the second.

`CC1CCN(C2CCN(S(=O)(=O)c3ccc(F)cc3)CC2)CC1` showed a z-score of -0.0245.

`Cc1cc2c(cc1C)NC(c1c(C)n(C)n(-c3ccccc3)c1=O)C1=C(CC(C)(C)CC1=O)N2` (stereo not given) was tested, and the z-score was active: -3.25.
In the case of `Cc1ccc(OCC(O)Cn2c(=N)n(Cc3ccccc3)c3ccccc32)cc1` (stereo not given), the z-score is reported as active: 4.01.
With `Cc1nc(N2CCN(C(=O)COc3ccccc3)CC2)c2c(C)c(C)sc2n1` the z-score was active: -4.29.
